From the supplement of paper PMC11417369
The list shows a part of the results.

test system: PfHDP1 homeodomain (GST-tagged); assay: gcPBM binding intensity (ln(normalized median fluorescence intensity)); higher = stronger DNA binding
Method in brief: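 An Agilent 4 × 180k array carrying primer-extended double-stranded 36-bp intergenic genomic probes and negative controls received GST-tagged P. falciparum DNA-binding domains expressed in E. coli, about 25 μg on average, for 1 h. The binding buffer contained 1× PBS, 1% milk, 0.2 mg/ml BSA, 0.5% salmon testes DNA and 0.03% Triton X-100. Binding intensity is the top Masliner-normalised natural-log median intensity across replicate spots of either probe orientation, read after Alexa488 anti-GST antibody staining and a 488 nm scan.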

In order of rising “gcPBM binding intensity (ln)” value:
1. TTTGTATTAAAAAAAAAAAAAAAAAAAATGAATAAA [TGCATGCA_negctrl_site292]  5.82
2. TCAAAAAAAAAAAAAAAAAAAAAAAAAAAAAAAAAA [CACACA_negctrl_site1753]  5.92
3. TTTTTTAAAGTTTAAAGTACATATAAAAATATATAA [XGTACX_site5267]  5.94
4. ATAACGGAAAAAAAAAGTACATGATATAAACATGAA [XGTACX_site8428]  6.01
5. AAAATCAAAAAAACAAGTACAAATGTGGACTTTTTT [XGTACX_site5363]  6.01
6. GAAAAAAAAATATCTTGTACTTACATAACTATTGGT [XGTACX_site5326]  6.05
7. TTTTTTTTTTTTTGGTGTACCATAGGTAAAATGATT [XGTACX_site8020]  6.07
8. ACACAATAAACATTATGTACATATAATGTTCTGTGT [XGTACX_site3381]  6.2
9. AATGATAATCTATTATGTACACATATATTCTTATGT [XGTACX_site4148]  6.22
10. TTTTTTTTTTTTTTTTTTTTTTTTCATTTGATATTA [TGCATGCA_negctrl_site112]  6.29
11. TGTTCTATGGTTTGTAGTACTTTAATAAATATAAAT [XGTACX_site7823]  6.35
12. TGTAAATATAAAAGATAATGATAAAAGGGACATTTT [CACACA_negctrl_site661]  6.37
13. CTCACATATATATATAGTACAATTTTTTTTTTTTTT [XGTACX_site5999]  6.41
14. GCTCAATTTTTGGGTACACACAAATGTATAAGAATA [CACACA_site7178]  6.41
15. ATGCTATAGGATCTTACACACATTTTTGTAAAAAAA [CACACA_site1868]  6.41
16. AAAAATAAGATATATACACACATATAAATATAAATA [CACACA_site7396]  6.47
17. ATCTATATTATAATAACACACATATATTATAGTATA [CACACA_site6330]  6.53
18. TATGAAAAAAAAAAAAAAAAAAAAAAAAAAAAAAAA [XGTACX_negctrl_site587]  6.55
19. TATTTATTTTATATATGTACATAATATATTCTTATA [XGTACX_site1619]  6.55
20. ATGTAGAATTGTAAATGTACATGAAACACATATTCA [XGTACX_site3436]  6.57
21. ATATATATAGAAATATGTACGAAAAAAATATCACAT [XGTACX_site746]  6.57
22. TTTTTATGTGTATATTATTACATTTACATCTTTAAC [CACACA_negctrl_site1676]  6.64
23. AAGAAAAATACTACGTGTACCAAACTTCCTACCAAC [XGTACX_site1426]  6.67
24. AATAAGCTCACGTGTCGTACATTTTTTAAAACAACC [XGTACX_site4707]  6.68
25. TATATATGGATATATACACACAACGGTTATAAATAT [CACACA_site6655]  6.73
26. TGACCTGTTCAGGTAACACACATATAAACCCATACA [CACACA_site31]  6.81
27. ACAAGACAACAAGGAAGTACTCATAAATATATTTGG [XGTACX_site1423]  6.82
28. AGAGAGAAAGTTATAACATGCAACAATTTTTAGAAG [TGCATGCA_site1]  6.83
29. CTTTAAACCCTGAACACACACAAATACACCCAAAAA [CACACA_site4297]  6.95
30. ATTTATGGAAAAAGAACACACAATCAAACAAAAATA [CACACA_site3707]  7.14
31. ATAAAATTATCTACATGTACTCATATATATTTGTTT [XGTACX_site5911]  7.2
32. AATATATATATGTGTACACATCCAAAATAGGCATAC [CACACA_site5705]  7.59
33. TTATTTATTCTATGTGCATGTTATTTTTTTTTTTCG [TGCATGCA_site262]  8.21
34. ATATATATATAAATATGTACATATTTATATATGAAT [XGTACX_site3220]  8.6
35. TATATATATATATTATGTACATATATAAATTAACAT [XGTACX_site3368]  8.65
36. TATATATATATATTATGTACATATAAATATATTTTT [XGTACX_site1509]  8.8
37. CTTAAAATATATTTAGTGCATATACTAATATATTAT  8.9
38. ATATAAATGAATATATGTACATATATATATATATAT [XGTACX_site6361]  9.06
39. TATATATATATATGTGGTACATAAAATTATTATTTT [XGTACX_site4554]  9.18
40. AAAAAAATAAAATATATATATATATATATATATATA [GTGCAC_negctrl_site706]  9.58
41. TATATATATATATATGTGCACTGAAAGAATTATACA [GTGCAC_site9586]  9.76
42. AATATAGGAATATGCACACATATATACATACATACA [CACACA_site1521]  9.82
43. TTTTTCTAATTATGCACACATATCAAAATATTCAAT [CACACA_site2749]  10.4
44. CCTTATACGATATTATGTACGCATATGTGCATTTTT [XGTACX_site1570]  10.9
